Test results published in the supplement of paper PMC12067230.
This is a noisy data set.

assay: amyloid nucleation score relative to library mode (yeast Sup35 reporter selection) (log enrichment difference); higher = more amyloid nucleation; sequences are the first 22 residues of the Bri2 peptide extended by up to 12 random residues; conditions: random library (experiment): 1;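 active = nucleation score significantly above 0 at FDR 0.05; inactive = not significantly above 0 or absent from output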
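Also: [psi-pin-] Saccharomyces cerevisiae expressing SupN fusions, induced by 100 µM Cu2SO4, selected 7 d at 30 °C without adenine and uracil, scored by deep sequencing of output versus input.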

Amyloid nucleation score, 5.31:
EASNCFAIRHFENKFAVETLICRHEYSERWPQSG

Amyloid nucleation score, -0.295:
EASNCFAIRHFENKFAVETLICRIVSTPRSGWAA

Amyloid nucleation score, 1.95:
EASNCFAIRHFENKFAVETLICRHGYWVNSSRWE

Amyloid nucleation score, 6.4:
EASNCFAIRHFENKFAVETLICRIGC

Amyloid nucleation score, 1.3:
EASNCFAIRHFENKFAVETLICRHYMNWASWESR

Amyloid nucleation score, -0.0194:
EASNCFAIRHFENKFAVETLICRIGHPRHVLWQS

Amyloid nucleation score, inactive:
EASNCFAIRHFENKFAVETLICRHAVCASTRAYA, EASNCFAIRHFENKFAVETLICRHAVCGIEECPW, EASNCFAIRHFENKFAVETLICRHAVRCMDGTMC, EASNCFAIRHFENKFAVETLICRHNSCWAWILWQ, EASNCFAIRHFENKFAVETLICRHRLVSMGLYWV, EASNCFAIRHFENKFAVETLICRHRNSE, EASNCFAIRHFENKFAVETLICRHSTYHH, EASNCFAIRHFENKFAVETLICRHVLWEAEVLPM, EASNCFAIRHFENKFAVETLICRHWRNYAPRGTR, EASNCFAIRHFENKFAVETLICRHYLKDQSHARR, EASNCFAIRHFENKFAVETLICRICRFFRPVMAG, EASNCFAIRHFENKFAVETLICRIGEGPYLSAYR, EASNCFAIRHFENKFAVETLICRIGGHKDHVNDA, EASNCFAIRHFENKFAVETLICRIGIF, EASNCFAIRHFENKFAVETLICRIGIQVICRRAD, EASNCFAIRHFENKFAVETLICRIGLR, EASNCFAIRHFENKFAVETLICRIGVLCGMVCSL, EASNCFAIRHFENKFAVETLICRILLISTDCIAS, EASNCFAIRHFENKFAVETLICRIP, EASNCFAIRHFENKFAVETLICRIQRSAMHCECR, EASNCFAIRHFENKFAVETLICRIRIT, EASNCFAIRHFENKFAVETLICRIRLGKDELKRG, EASNCFAIRHFENKFAVETLICRIRPILSTCAVS, EASNCFAIRHFENKFAVETLICRIRRTGHVMEQG, EASNCFAIRHFENKFAVETLICRIRSCLSALAVA, EASNCFAIRHFENKFAVETLICRISSIHYSCKMW, EASNCFAIRHFENKFAVETLICRITSRFWLYMKY, EASNCFAIRHFENKFAVETLICRITTGARTARWA, EASNCFAIRHFENKFAVETLICRIWPVWTEAIPC

Amyloid nucleation score, 2.7:
EASNCFAIRHFENKFAVETLICRHEVAYSGSVLN

Amyloid nucleation score, 2.49:
EASNCFAIRHFENKFAVETLICRIIGPCYRDDLR

Amyloid nucleation score, 0.443:
EASNCFAIRHFENKFAVETLICRHRLVGGEVNNG

Amyloid nucleation score, 4.68:
EASNCFAIRHFENKFAVETLICRIG

Amyloid nucleation score, -0.813:
EASNCFAIRHFENKFAVETLICRHSPMYRKDLGL

same assay, conditions: random library (experiment): 2

Amyloid nucleation score, 7.85:
EASNCFAIRHFENKFAVETLICRHADFFC

Amyloid nucleation score, 1.59:
EASNCFAIRHFENKFAVETLICRIWD

Amyloid nucleation score, 4.61:
EASNCFAIRHFENKFAVETLICRHTCTSDTYIAH

Amyloid nucleation score, 5.57:
EASNCFAIRHFENKFAVETLICRHANVHLSSGKT

Amyloid nucleation score, 0.111:
EASNCFAIRHFENKFAVETLICRHKTVSRCLTCG

Amyloid nucleation score, 0.693:
EASNCFAIRHFENKFAVETLICRIRLGYVINVDW

Amyloid nucleation score, inactive:
EASNCFAIRHFENKFAVETLICRHCSQAIVWLYN, EASNCFAIRHFENKFAVETLICRHFLGMGDSAEY, EASNCFAIRHFENKFAVETLICRHHSWPLLGSGR, EASNCFAIRHFENKFAVETLICRHLIVHRTSFVS, EASNCFAIRHFENKFAVETLICRHNIMRGSPWWG, EASNCFAIRHFENKFAVETLICRHSRVGTRGEPV, EASNCFAIRHFENKFAVETLICRHVL, EASNCFAIRHFENKFAVETLICRHWCE, EASNCFAIRHFENKFAVETLICRICNHVSRCVEE, EASNCFAIRHFENKFAVETLICRIGSYLWSMGTW, EASNCFAIRHFENKFAVETLICRIINV, EASNCFAIRHFENKFAVETLICRILCSIYFGGIQ, EASNCFAIRHFENKFAVETLICRILHSSVGFFTS, EASNCFAIRHFENKFAVETLICRILSSAYFGFSG, EASNCFAIRHFENKFAVETLICRIQHAAPYTGES, EASNCFAIRHFENKFAVETLICRIRVIGFRRVVR, EASNCFAIRHFENKFAVETLICRISQGLSEVFSA, EASNCFAIRHFENKFAVETLICRITIRS

Amyloid nucleation score, 3.61:
EASNCFAIRHFENKFAVETLICRINLDGPYYGRG

same assay, conditions: random library (experiment): 3

Amyloid nucleation score, 0.315:
EASNCFAIRHFENKFAVETLICRILN

Amyloid nucleation score, inactive:
EASNCFAIRHFENKFAVETLICRHAVRQDVAVWW, EASNCFAIRHFENKFAVETLICRHDKVLLTECSH, EASNCFAIRHFENKFAVETLICRHMSGVLWMYGT, EASNCFAIRHFENKFAVETLICRHPGVGREER, EASNCFAIRHFENKFAVETLICRHPSGCGESPVR, EASNCFAIRHFENKFAVETLICRHQVL, EASNCFAIRHFENKFAVETLICRHRIRCRCKV, EASNCFAIRHFENKFAVETLICRHSALR, EASNCFAIRHFENKFAVETLICRHWSVRRGVWPR, EASNCFAIRHFENKFAVETLICRIGLKGGRFEWP, EASNCFAIRHFENKFAVETLICRIGRGWMSTGCL, EASNCFAIRHFENKFAVETLICRIIVSFRNLRFE, EASNCFAIRHFENKFAVETLICRIPWKYARSCGW, EASNCFAIRHFENKFAVETLICRIRS, EASNCFAIRHFENKFAVETLICRISFKFSWLRLP, EASNCFAIRHFENKFAVETLICRITSDTPIRRKV, EASNCFAIRHFENKFAVETLICRITWCVDLGAPG

Amyloid nucleation score, 2.69:
EASNCFAIRHFENKFAVETLICRHATGGYPDLWY

Amyloid nucleation score, -0.0526:
EASNCFAIRHFENKFAVETLICRHAITRNAKRMS
